# Publication PMC4336329 (PLoS ONE, 2015)
# The whole screen tested about 310,000 compounds, of which about 14,000 (4.5%) showed an effect of 50% or more. The effect is printed as a negative number. The list shows a part of the results.
# Molecular target: human ether-à-go-go-related gene (hERG) potassium channel (human, UniProt Q12809)
# Test: primary screen, population patch clamp on CHO cells stably expressing hERG
# 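Note: peak tail current of the secondary pulse compared with the same well before compound.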
# Sequence of human ether-à-go-go-related gene (hERG) potassium channel (Q12809 whole entry, looked up): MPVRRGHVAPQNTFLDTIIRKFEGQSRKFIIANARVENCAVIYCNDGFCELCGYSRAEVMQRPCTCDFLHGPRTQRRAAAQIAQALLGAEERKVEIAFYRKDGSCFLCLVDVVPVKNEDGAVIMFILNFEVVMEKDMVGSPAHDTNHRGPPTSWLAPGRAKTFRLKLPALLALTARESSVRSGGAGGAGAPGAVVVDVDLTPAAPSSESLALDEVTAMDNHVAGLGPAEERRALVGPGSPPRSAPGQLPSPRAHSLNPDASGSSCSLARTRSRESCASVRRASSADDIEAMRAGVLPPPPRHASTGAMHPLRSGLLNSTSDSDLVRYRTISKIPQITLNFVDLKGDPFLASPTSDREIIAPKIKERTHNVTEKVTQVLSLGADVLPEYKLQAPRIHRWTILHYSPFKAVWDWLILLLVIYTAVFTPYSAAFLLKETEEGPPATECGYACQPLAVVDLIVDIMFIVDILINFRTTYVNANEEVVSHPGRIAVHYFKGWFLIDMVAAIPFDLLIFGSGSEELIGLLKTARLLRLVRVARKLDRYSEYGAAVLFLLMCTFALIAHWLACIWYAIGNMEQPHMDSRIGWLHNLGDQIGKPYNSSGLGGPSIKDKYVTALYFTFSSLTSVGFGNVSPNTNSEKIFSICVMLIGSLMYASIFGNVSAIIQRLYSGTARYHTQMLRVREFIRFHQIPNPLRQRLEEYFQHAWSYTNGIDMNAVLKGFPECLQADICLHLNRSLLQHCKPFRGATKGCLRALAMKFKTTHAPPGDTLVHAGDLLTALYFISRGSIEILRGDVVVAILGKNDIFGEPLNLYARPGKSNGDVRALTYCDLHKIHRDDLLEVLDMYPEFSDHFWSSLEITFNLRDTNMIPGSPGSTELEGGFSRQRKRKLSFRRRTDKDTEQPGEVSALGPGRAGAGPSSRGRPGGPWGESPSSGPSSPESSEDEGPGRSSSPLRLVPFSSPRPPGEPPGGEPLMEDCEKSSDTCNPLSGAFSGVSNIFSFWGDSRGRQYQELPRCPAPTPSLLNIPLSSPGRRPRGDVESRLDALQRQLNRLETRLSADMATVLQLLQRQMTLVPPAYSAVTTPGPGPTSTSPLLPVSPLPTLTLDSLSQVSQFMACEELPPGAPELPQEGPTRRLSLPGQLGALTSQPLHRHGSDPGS
row,SMILES,"hERG current change (%, negative = inhibition) at 10uM"
1,O=C(CSc1nc2ccccc2o1)c1ccccc1,2.21%
2,CNC(=S)N(Cc1cc2cc(C)ccc2n2nnnc12)CC(C)(C)CN(C)C,24.1%
3,Cc1ccc(NC(=O)CSCC(=O)Nc2ccccc2N2CCCCC2)cc1,-11.3%
4,COc1ccc(C(=O)c2oc3ccccc3c2N)cc1,3.86%
5,O=C(NCCCO)/C(=C\c1ccco1)NC(=O)c1ccc(Br)o1,-1.83%
6,CNC(=O)N(O)C1N(NC(=O)Nc2ccccc2)C(=S)SC1(C)C (centres unmarked),5.86%
7,O=C(NC1CCSC1=O)C1CCCCC1 (centres unmarked),5.49%
8,Cl.N=c1sccn1CC(=O)Nc1ccc(S(=O)(=O)N2CCOCC2)cc1,-5.32%
9,O=C(COc1cc(Cl)c(Cl)cc1Cl)Nc1ccncc1,-10.7%
10,CC1(C)CC(C(=O)NCCC(c2ccccc2)c2ccco2)CCO1 (centres unmarked),-9.31%
11,c1ccc2sc(Sc3ncnc4sccc34)nc2c1,15%
12,N#CCCn1cc(C(=O)Nc2ccc(F)cc2)c(-c2ccccc2)n1,-15.2%
13,O=C(NCCc1ccccn1)C(F)(F)C(F)(F)C(F)(F)C(F)(F)C(F)(F)C(F)(F)C(F)(F)C(F)F,15.9%
14,Cc1ccc(NC2=CC(=O)CC(c3ccccc3)C2)cc1 (centres unmarked),13.3%
15,Cn1ccnc1SCC(=O)Nc1ccc2c(c1)OCO2,0.703%
16,O=C(c1ccco1)N1CCN=C1SCc1ccc(F)cc1,-1.06%
17,CN(C)c1cccc2c1c(NS(=O)(=O)c1cn(C)cn1)nn2C,17.3%
18,CS(=O)(=O)N(C(=O)NC(=O)NC1CCS(=O)(=O)C1)C1CCCCC1 (centres unmarked),4.13%
19,Cc1cc(NC(=O)c2ccc(N3C(=O)CCC3=O)cc2)no1,25.5%
20,O=C(O)CC1(CC(=O)Nc2cc(C(F)(F)F)cc(C(F)(F)F)c2)CCCCC1,18.6%
21,Cc1cc(C)n(CCCN2CCC(C(=O)Nc3cccc(-c4cccc(F)c4)c3)CC2)n1,-80.4%
22,O=C(NCCc1c[nH]c2ccccc12)C(=O)NCC1OCCN1S(=O)(=O)c1cc(F)ccc1F (centres unmarked),-15.6%

row,SMILES,"hERG current change (%, negative = inhibition) at 10uM"
1,Cc1ccc(C(=O)NC(=S)N(C)C2CCCCC2)cc1,15.1%
2,O=C(COC(=O)c1ccc(CO)cc1)c1ccc(S(=O)(=O)N2CCCCC2)cc1,13.1%
3,Cc1cccc(NC(=O)Cc2cccs2)n1,6.95%
4,CC(NC(=O)Cc1ccc(F)cc1)c1ccccc1 (centres unmarked),-15.6%
5,COc1cc(C(=O)NCC2CCCO2)ccc1OCc1ccc(Cl)cc1Cl (centres unmarked),-16.9%
6,Cc1cccc(C)c1N(CC(=O)Nc1cc(Cl)ccc1Oc1ccccc1)S(C)(=O)=O,2.06%
7,Cc1cc(C)c(OCC(=O)Nc2ccccn2)c([N+](=O)[O-])c1,-2.43%
8,CCOC(=O)Cn1nc(C)n(-c2ccc(Br)cc2)c1=O,-4.4%
9,CC(C)c1ccc(NC(=S)NNC(=O)c2cccnc2)cc1,16.8%
10,CS(=O)(=O)N(CC(O)Cn1c2ccccc2c2ccccc21)c1cccc2ccccc12 (centres unmarked),0.652%
11,Cc1ccc(S(=O)(=O)N2CCOCC2)cc1C(=O)OCC(=O)NCc1ccc2c(c1)OCO2,-44.1%
12,CCN1CCN(c2ccc([N+](=O)[O-])cc2S(=O)(=O)N2CCOCC2)CC1,-43.9%
13,Cc1cnc(C(=O)NNC(=O)c2ccc(Br)cc2)cn1,-30.2%
14,Cn1c(CCN2CCCCC2)nc2cc(NC(=O)NC3CCCCC3)ccc21,0.766%
15,COC(=O)[C@]1(S(=O)(=O)c2ccccc2)C[C@@H]2ON=C(c3ccc(OC)cc3)[C@@H]2C1,10.8%
16,COc1cccc(NC(=O)c2cc3ccccc3cc2OC)c1,8.02%
17,COc1ccc(N2C(=O)C3C4C=CC(c5ccccc5)(C3C2=O)C2C(=O)N(c3ccc(OC)cc3)C(=O)C42)cc1 (centres unmarked),5.29%
18,CCN(CC)CCc1nc(-c2ccccc2)no1.O=C(O)CC(O)(CC(=O)O)C(=O)O,-10.6%
19,CC1N=C(c2ccccc2)c2cc(Br)ccc2NC1=O (centres unmarked),-44%
20,COC(=O)CC1COc2ccccc2N1C(=O)c1cccc(C(F)(F)F)c1 (centres unmarked),17.8%
21,Cc1ccc(-n2c(C)cc(C(=O)COC(=O)c3ccc[nH]c3=O)c2C)cc1C,-6.9%
22,CCCCCn1c(Sc2ncccn2)nc2c1c(=O)[nH]c(=O)n2C,-10.5%

row,SMILES,"hERG current change (%, negative = inhibition) at 10uM"
1,CC(=O)N1N=C(c2ccncc2)OC12CCCCC2,4.17%
2,Cc1ccc(S(=O)(=O)c2c[nH]c3cc4c(cc3c2=O)OCO4)cc1,8.21%
3,CCOC(=O)c1ccc(N2CCN(C(C)=O)CC2)c(NC(=O)c2cccnc2)c1,-9.24%
4,COc1ccc(N(CC(=O)Nc2cccc(N(C)S(C)(=O)=O)c2)S(=O)(=O)c2ccc(C)cc2)cc1,15.8%
5,O=C(O)c1ccc2c(c1)C(=O)N(Cc1ccc3c(c1)OCO3)C2=O,-5.32%
6,COc1ccc(N(C(=O)CNC(=O)c2ccco2)C(C(=O)NC2CCCC2)c2ccc(C)o2)cc1 (centres unmarked),-19.7%
7,CN(CC(=O)Nc1cccnc1)S(=O)(=O)c1ccc(Br)cc1,-21.3%
8,N=c1c2c3c(sc2nc2n1CCCCC2)CCCCC3,-53%
9,CCOc1cccc(C(=O)Nc2ccc3oc(Cc4ccc(Cl)cc4)nc3c2)c1,6.61%
10,O=C(NC1CCCC1)C(c1ccccc1)N(C(=O)c1csnn1)C1CCCC1 (centres unmarked),-10.8%
11,Cc1cc(NC(=O)C(=O)NCCN2CCN(S(C)(=O)=O)CC2)ccc1Br,-21.3%
12,COc1ccc(SCC2CN(C)CCC2c2ccc(F)cc2)cc1.Cl (centres unmarked),-11.8%
13,COc1ccccc1N1CCN(Cc2ccc3c(c2)OCO3)CC1,-20.1%
14,COc1ccc(CNCC(O)(c2ccccc2)c2ccc(F)cc2)cc1OC (centres unmarked),-61.2%
15,Cc1ccsc1C1Nc2ccc3ncccc3c2C2=C1C(=O)CCC2 (centres unmarked),-8.33%
16,Cc1cc(C(=O)CSc2nnc(-c3ccc(Cl)cc3)n2CC2CCCO2)c(C)n1C (centres unmarked),-20%
17,CCS(=O)(=O)CCSc1nc2c(cc1C#N)CCCC2,-28%
18,Cn1c(=O)n(C)c2cc(S(=O)(=O)NCCOCCO)ccc21,8.53%
19,COc1ccccc1-c1nnc(SCC(=O)Nc2oc(C)c3c(C)n[nH]c(=O)c23)n1C,24.7%
20,C#CCNC(=O)C1=C[C@@H](C2CC2)C[C@@H](OCCCCO)O1,-14%
21,CN1CCN(S(=O)(=O)c2ccc(NC(=O)Nc3cccc(Cl)c3)cc2)CC1,-18.7%
22,CSc1ccccc1C(=O)Nc1cccc(C(C)O)c1 (centres unmarked),-2.74%

row,SMILES,"hERG current change (%, negative = inhibition) at 10uM"
1,COc1ccccc1C(CNc1ccc(S(=O)(=O)N2CCCC2)cc1[N+](=O)[O-])N(C)C (centres unmarked),-20.5%
2,CCc1ccc(NC(=O)Cn2c(=O)n(CCCC(=O)NCc3ccco3)c(=O)c3ccccc32)cc1,1.22%
3,Oc1ccc(N2CCN(C(c3cccnc3)c3nnnn3Cc3ccccc3)CC2)cc1 (centres unmarked),-21.2%
4,Cc1cc2cc3c(cc2nc1SCC(=O)O)OCCO3,9.04%
5,CCOc1nc(SCCOc2ccc(C)cc2)nc(N(C)C)n1,-9.27%
6,COc1ccc(-c2c(=O)n(OCc3ccccc3[N+](=O)[O-])c3ccccc3[n+]2[O-])c(OC)c1,-5.32%
7,CCN(CC(=O)Nc1ccc(NC(C)=O)cc1)C(=O)/C=C/c1cn(-c2ccccc2)nc1-c1cccs1,0.487%
8,COC/C=C/C1=CC2=CC(=O)C(C)(OC(=O)c3cnc4ccccc4n3)C(=O)C2=CN1CCOC (centres unmarked),13.3%
9,CCOc1ccc2nc(N(CCCN(C)C)C(=O)c3ccc(S(=O)(=O)N4CCc5ccccc5C4)cc3)sc2c1.Cl,-1.08%
10,CC(=O)Nc1ccc(C)c(NS(=O)(=O)c2cccc(C(F)(F)F)c2)c1,3.63%
11,O=C(CNc1cccc(S(=O)(=O)N2CCOCC2)c1)Nc1ccccc1F,-6.55%
12,Cn1c(CC(=O)Nc2ccccc2Cl)nnc1SCC(=O)Nc1nncs1,22.7%
13,CN1CCN(C2=Nc3ccccc3Oc3ccc(Cl)cc32)CC1.O=C(O)CCC(=O)O,-6.25%
14,CC1Cc2c([nH]c3ccccc23)C2c3ccccc3CN12 (centres unmarked),-7.69%
15,O=C1CC(=O)CC(c2ccccc2Cl)C1,7.85%
16,COc1ccccc1NS(=O)(=O)c1cccc(C(=O)NCc2ccco2)c1,-18.7%
17,Cc1ccc2nc(N3CCN(C)CC3)c(C=O)c(=O)n2c1,5.3%
18,CN(C(=O)c1cccc(NC(=O)c2ccccc2)c1)C1CCCCC1,-9.26%
19,O=C(O)c1ccc(OCC(O)Cn2cnc3ccccc32)cc1 (centres unmarked),9.74%
20,COc1cccc(CCNC(=O)c2ccc(C#N)cc2)c1,-18.8%
